# Literature values, collected in article PMC11006913.
# Residue numbers refer to the chain shown, from its start. The list shows a part of the results.
# Columns and labels:
# Settings in all cases: PBM; conditions not shown; double strand, one strand shown; scale: upbm affinity estimate (log intensity, higher = more binding, comparable within an allelic series)
# [1] = target: HOXD13 Q325K (Homo sapiens) (UniProt P35453)
# [2] = target: HOXD13 Q325R (Homo sapiens) (UniProt P35453)
# [3] = target: PITX2 L100Q (Homo sapiens) (UniProt Q99697)
# [4] = target: PITX2 R108H (Homo sapiens) (UniProt Q99697)
# [5] = target: PITX2 R130W (Homo sapiens) (UniProt Q99697)
# [6] = target: PITX2 T114P (Homo sapiens) (UniProt Q99697)
# [7] = target: HOXD13 R306W (Homo sapiens) (UniProt P35453)
# ISX (Homo sapiens) = ISX (Homo sapiens) (UniProt Q2M1V0)
# ISX R83Q (Homo sapiens) = ISX R83Q (Homo sapiens) (UniProt Q2M1V0)
# [8] = target: PROP1 R112Q (Homo sapiens) (UniProt O75360)
# Chain of UniProt O75360 (O75360 56-141 R112Q): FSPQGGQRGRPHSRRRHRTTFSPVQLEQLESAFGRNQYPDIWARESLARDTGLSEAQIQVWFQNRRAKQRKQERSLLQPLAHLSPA
# PBX4 (Homo sapiens) = target: T1, PBX4 (Homo sapiens) (UniProt Q9BYU1)
# T1 sequence: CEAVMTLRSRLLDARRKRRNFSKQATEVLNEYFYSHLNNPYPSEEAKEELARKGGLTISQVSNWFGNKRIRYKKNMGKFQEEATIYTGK
# [9] = target: T2, PBX4 R215Q (Homo sapiens) (UniProt Q9BYU1)
# T2 sequence: T1 sequence with R19Q
sequence,measurement,setting,value
GTTATAAA [8-mer GTTATAAA],binding signal,[1],12.5
same,binding signal,[2],12.1
AGGATTAA [8-mer AGGATTAA],binding signal,[1],12.3
same,binding signal,[3],11.8
same,binding signal,[4],10
same,binding signal,[5],8.81
same,binding signal,[6],10.6
TATAAACA [8-mer TATAAACA],binding signal,[1],12.2
same,binding signal,[2],12.2
same,binding signal,[7],11.5
GGTTTATA [8-mer GGTTTATA],binding signal,[1],12.4
same,binding signal,[2],12.3
GCGGATAA [8-mer GCGGATAA],binding signal,[1],12.3
same,binding signal,[3],9.96
same,binding signal,[4],8.73
same,binding signal,[5],8.47
AGTATAAA [8-mer AGTATAAA],binding signal,[1],12.8
same,binding signal,[2],12.6
CGGATTAA [8-mer CGGATTAA],binding signal,[1],12.5
same,binding signal,[3],11.5
same,binding signal,[4],9.79
same,binding signal,[5],8.53
same,binding signal,[6],10.2
TTATAAAA [8-mer TTATAAAA],binding signal,[1],12.4
same,binding signal,[2],12.1
same,binding signal,[7],11.6
GAATAAAA [8-mer GAATAAAA],binding signal,[1],12.3
CTTTTATA [8-mer CTTTTATA],binding signal,[1],12.4
same,binding signal,[2],12.2
same,binding signal,[7],11.6
GATATAAA [8-mer GATATAAA],binding signal,[1],12.2
same,binding signal,[2],12.2
GATAAAAC [8-mer GATAAAAC],binding signal,[1],12.6
same,binding signal,[2],12
AGATAAAA [8-mer AGATAAAA],binding signal,[1],12.5
GCATAAAA [8-mer GCATAAAA],binding signal,[1],13
same,binding signal,[2],12.2
ATTAATCC [8-mer ATTAATCC],binding signal,[1],12.5
same,binding signal,[3],11.9
same,binding signal,[4],10.3
same,binding signal,[5],8.89
same,binding signal,[6],10.8
CGCATAAA [8-mer CGCATAAA],binding signal,[1],12.5
same,binding signal,[2],12.1
TATAAATA [8-mer TATAAATA],binding signal,[1],12.2
same,binding signal,[2],12.2
same,binding signal,[7],11.5
CGTATTAA [8-mer CGTATTAA],binding signal,[1],12.4
same,binding signal,[2],12.3
GTATAAAA [8-mer GTATAAAA],binding signal,[1],13.2
same,binding signal,[2],13
GGGATTAA [8-mer GGGATTAA],binding signal,[1],12.4
same,binding signal,[3],12
same,binding signal,[4],10.2
same,binding signal,[5],8.74
same,binding signal,[6],10.9
ATATAAAT [8-mer ATATAAAT],binding signal,[1],12.2
same,binding signal,[2],12.2
same,binding signal,[7],11.7
AATTTATC [8-mer AATTTATC],binding signal,[1],12.2
same,binding signal,ISX (Homo sapiens),12.8
same,binding signal,ISX R83Q (Homo sapiens),11.7
GTATAAAC [8-mer GTATAAAC],binding signal,[1],13.1
same,binding signal,[2],12.8
GCGTATAA [8-mer GCGTATAA],binding signal,[1],12.2
same,binding signal,[2],12
GAGATAAA [8-mer GAGATAAA],binding signal,[1],12.4
same,binding signal,[3],9.88
same,binding signal,[4],8.83
same,binding signal,[5],8.73
GTATTAAA [8-mer GTATTAAA],binding signal,[1],12.6
same,binding signal,[2],12.4
GGATTAAC [8-mer GGATTAAC],binding signal,[1],12.2
same,binding signal,[3],11.8
same,binding signal,[4],9.98
same,binding signal,[5],8.57
same,binding signal,[6],10.5
ATTTATAC [8-mer ATTTATAC],binding signal,[1],12.9
same,binding signal,[2],12.6
GGTATAAA [8-mer GGTATAAA],binding signal,[1],13.3
same,binding signal,[2],12.7
CGTATAAA [8-mer CGTATAAA],binding signal,[1],13.1
same,binding signal,[2],12.8
CATTTATA [8-mer CATTTATA],binding signal,[1],12.2
same,binding signal,[2],12
same,binding signal,[7],11.6
GGTATTAA [8-mer GGTATTAA],binding signal,[1],12.8
same,binding signal,[2],12.2
same,binding signal,[6],9.56
GGAATTAA [8-mer GGAATTAA],binding signal,[1],12.3
same,binding signal,[3],10.8
same,binding signal,[4],9.44
same,binding signal,[5],8.88
same,binding signal,[6],9.49
ATTAATAC [8-mer ATTAATAC],binding signal,[1],12.7
same,binding signal,[2],12.4
same,binding signal,[6],9.56
GATAAATA [8-mer GATAAATA],binding signal,[1],12.3
same,binding signal,[8],12
GGATTAAA [8-mer GGATTAAA],binding signal,[1],12.9
same,binding signal,[3],11.5
same,binding signal,[4],9.65
same,binding signal,[5],8.69
same,binding signal,[6],10.1
GATTAATA [8-mer GATTAATA],binding signal,[3],11.1
same,binding signal,[4],9.56
same,binding signal,[5],8.89
same,binding signal,[6],9.83
ACATGTCA [8-mer ACATGTCA],binding signal,PBX4 (Homo sapiens),11.1
same,binding signal,[9],10.3
GATAATCC [8-mer GATAATCC],binding signal,[3],11.5
same,binding signal,[4],9.66
same,binding signal,[5],8.52
same,binding signal,[6],10.1
CGACCGCC [8-mer CGACCGCC],binding signal,ISX (Homo sapiens),9.56
same,binding signal,ISX R83Q (Homo sapiens),9.66
GGGCACCC [8-mer GGGCACCC],binding signal,ISX (Homo sapiens),9.91
same,binding signal,ISX R83Q (Homo sapiens),9.77
GGCAGCCC [8-mer GGCAGCCC],binding signal,ISX (Homo sapiens),9.77
same,binding signal,ISX R83Q (Homo sapiens),9.74
